Columns and labels:
[1] = biological target: rat Munc13-1(859–1407,1453–1531) fragment (MUN*) (rat, UniProt Q62768 859-1531, Munc13-1(859–1407,1453–1531)); assay: NMR titration
[2] = biological target: rat synaptobrevin-2 (residues 29–93) (rat, UniProt P63045 part only); assay: assembly and ultrafiltration
[3] = biological target: human SNAP25 (residues 11–82) (human, UniProt P60880 11-82); assay: assembly and ultrafiltration
[4] = biological target: syntaxin-1A(2–253) (C145S, S249C), rhodamine-labeled (rat, UniProt P32851, C145S | S249C); assay: FRET or BRET
[5] = biological target: syntaxin-1A(2–253) (R210E, C145S, S249C), rhodamine-labeled (rat, UniProt P32851, R210E | C145S | S249C); assay: FRET or BRET

B1: syntaxin-1 SNARE motif ([…]) (domain or fragment)
chain: not shown
- Kd [1]: 46 ± 20 µM
- binding result [2]: binds
- binding result [3]: binds

B2: synaptobrevin([…]) (S61C), BODIPY-labeled (domain or fragment)
chain: not shown
modifications: BODIPY fluorescence donor (Bodipy-FL-maleimide) on residue 61
- binding result [4]: binds
- binding result [5]: binds

Reference: paper PMC3087822 (Nature structural & molecular biology, 2011)
